# Measured values: paper PMC12820563
# Some of the results follow. The list includes weakly bound sequences.
# Molecular target: T1, MBP-FoxP3dN (UniProt Q99JB6)
# T1 sequence: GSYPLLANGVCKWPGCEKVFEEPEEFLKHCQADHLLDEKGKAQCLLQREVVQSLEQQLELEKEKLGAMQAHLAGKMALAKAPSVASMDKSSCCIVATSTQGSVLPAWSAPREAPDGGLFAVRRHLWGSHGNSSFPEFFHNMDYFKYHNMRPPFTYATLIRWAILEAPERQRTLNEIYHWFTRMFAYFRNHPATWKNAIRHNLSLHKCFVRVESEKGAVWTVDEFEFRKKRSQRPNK
# Experiment: PD-seq (MBP pull-down with sequencing)
# Details: 20 mM Tris-HCl pH 7.5, 100 mM NaCl, 1.5 mM MgCl2, 0.4 uM protein, 0.1 uM dsDNA library, 30 min, room temperature, amylose pull-down; high values mean tight binding; double strand, one strand shown
row,Sequence,binding signal (RPM ratio (pull-down/input))
1,GATGATTGTTCTCCCAGCTGATGAATTTGGATTGTCGAGTAAACAAATTTTCCTAATCTTTCTGTTCAAGCGCCATCTAC,1.29
2,GATGATTGTTCTCCCAGCTGATGAATTGGTTGATTCGAGTAAACAAATTTTCCTAATCTTTCTGTTCAAGCGCCATCTAC,2.7
3,GATGATTGTTCTCCCAGCTGATGAATTCCGATCATCGAGTAAACAAATTTTCCTAATCTTTCTGTTCAAGCGCCATCTAC,0.404
4,GATGATTGTTCTCCCAGCTGATGAATTTCCTCAATCGAGTAAACAAATTTTCCTAATCTTTCTGTTCAAGCGCCATCTAC,0.203
5,GATGATTGTTCTCCCAGCTGATGAATTCTCGTGTTCGAGTAAACAAATTTTCCTAATCTTTCTGTTCAAGCGCCATCTAC,0.485
6,GATGATTGTTCTCCCAGCTGATGAATTGCTAATTTCGAGTAAACAAATTTTCCTAATCTTTCTGTTCAAGCGCCATCTAC,0.661
7,GATGATTGTTCTCCCAGCTGATGAATTCCTGCTGTCGAGTAAACAAATTTTCCTAATCTTTCTGTTCAAGCGCCATCTAC,0.362
8,GATGATTGTTCTCCCAGCTGATGAATTGTCTCGTTCGAGTAAACAAATTTTCCTAATCTTTCTGTTCAAGCGCCATCTAC,0.434
9,GATGATTGTTCTCCCAGCTGATGAATTTTATCCCTCGAGTAAACAAATTTTCCTAATCTTTCTGTTCAAGCGCCATCTAC,0.535
10,GATGATTGTTCTCCCAGCTGATGAATTACGCTCTTCGAGTAAACAAATTTTCCTAATCTTTCTGTTCAAGCGCCATCTAC,0.664
11,GATGATTGTTCTCCCAGCTGATGAATTGGAGATCTCGAGTAAACAAATTTTCCTAATCTTTCTGTTCAAGCGCCATCTAC,0.248
12,GATGATTGTTCTCCCAGCTGATGAATTGCAGACCTCGAGTAAACAAATTTTCCTAATCTTTCTGTTCAAGCGCCATCTAC,0.496
13,GATGATTGTTCTCCCAGCTGATGAATTGACTAAATCGAGTAAACAAATTTTCCTAATCTTTCTGTTCAAGCGCCATCTAC,0.228
14,GATGATTGTTCTCCCAGCTGATGAATTAATCTCTTCGAGTAAACAAATTTTCCTAATCTTTCTGTTCAAGCGCCATCTAC,0.313
15,GATGATTGTTCTCCCAGCTGATGAATTTCCCGGCTCGAGTAAACAAATTTTCCTAATCTTTCTGTTCAAGCGCCATCTAC,0.162
16,GATGATTGTTCTCCCAGCTGATGAATTTCACAGCTCGAGTAAACAAATTTTCCTAATCTTTCTGTTCAAGCGCCATCTAC,0.247
17,GATGATTGTTCTCCCAGCTGATGAATTTCTTTTTTCGAGTAAACAAATTTTCCTAATCTTTCTGTTCAAGCGCCATCTAC,0.77
18,GATGATTGTTCTCCCAGCTGATGAATTAGCTCACTCGAGTAAACAAATTTTCCTAATCTTTCTGTTCAAGCGCCATCTAC,0.367
19,GATGATTGTTCTCCCAGCTGATGAATTGTAGCCTTCGAGTAAACAAATTTTCCTAATCTTTCTGTTCAAGCGCCATCTAC,2.28
20,GATGATTGTTCTCCCAGCTGATGAATTGGCGAAGTCGAGTAAACAAATTTTCCTAATCTTTCTGTTCAAGCGCCATCTAC,0.225
21,GATGATTGTTCTCCCAGCTGATGAATTTACGTTATCGAGTAAACAAATTTTCCTAATCTTTCTGTTCAAGCGCCATCTAC,1.1

row,Sequence,binding signal (RPM ratio (pull-down/input))
1,GATGATTGTTCTCCCAGCTGATGAATTCAGAGTCTCGAGTAAACAAATTTTCCTAATCTTTCTGTTCAAGCGCCATCTAC,1.19
2,GATGATTGTTCTCCCAGCTGATGAATTACCTTACTCGAGTAAACAAATTTTCCTAATCTTTCTGTTCAAGCGCCATCTAC,0.372
3,GATGATTGTTCTCCCAGCTGATGAATTTGTTAGTTCGAGTAAACAAATTTTCCTAATCTTTCTGTTCAAGCGCCATCTAC,7.44
4,GATGATTGTTCTCCCAGCTGATGAATTACACCGCTCGAGTAAACAAATTTTCCTAATCTTTCTGTTCAAGCGCCATCTAC,0.442
5,GATGATTGTTCTCCCAGCTGATGAATTGGGGAATTCGAGTAAACAAATTTTCCTAATCTTTCTGTTCAAGCGCCATCTAC,0.706
6,GATGATTGTTCTCCCAGCTGATGAATTTAACACATCGAGTAAACAAATTTTCCTAATCTTTCTGTTCAAGCGCCATCTAC,0.559
7,GATGATTGTTCTCCCAGCTGATGAATTAAAAGGGTCGAGTAAACAAATTTTCCTAATCTTTCTGTTCAAGCGCCATCTAC,0.194
8,GATGATTGTTCTCCCAGCTGATGAATTGCCATCATCGAGTAAACAAATTTTCCTAATCTTTCTGTTCAAGCGCCATCTAC,1.56
9,GATGATTGTTCTCCCAGCTGATGAATTTTAGCGCTCGAGTAAACAAATTTTCCTAATCTTTCTGTTCAAGCGCCATCTAC,0.408
10,GATGATTGTTCTCCCAGCTGATGAATTGAGGGGGTCGAGTAAACAAATTTTCCTAATCTTTCTGTTCAAGCGCCATCTAC,0.567
11,GATGATTGTTCTCCCAGCTGATGAATTCCAGTATTCGAGTAAACAAATTTTCCTAATCTTTCTGTTCAAGCGCCATCTAC,0.893
12,GATGATTGTTCTCCCAGCTGATGAATTGATGCCTTCGAGTAAACAAATTTTCCTAATCTTTCTGTTCAAGCGCCATCTAC,3.31
13,GATGATTGTTCTCCCAGCTGATGAATTCAAGAAATCGAGTAAACAAATTTTCCTAATCTTTCTGTTCAAGCGCCATCTAC,0.248
14,GATGATTGTTCTCCCAGCTGATGAATTGACACTATCGAGTAAACAAATTTTCCTAATCTTTCTGTTCAAGCGCCATCTAC,0.798
15,GATGATTGTTCTCCCAGCTGATGAATTCAGGGACTCGAGTAAACAAATTTTCCTAATCTTTCTGTTCAAGCGCCATCTAC,0.347
16,GATGATTGTTCTCCCAGCTGATGAATTACGAAACTCGAGTAAACAAATTTTCCTAATCTTTCTGTTCAAGCGCCATCTAC,0.607
17,GATGATTGTTCTCCCAGCTGATGAATTAAATTTTTCGAGTAAACAAATTTTCCTAATCTTTCTGTTCAAGCGCCATCTAC,0.508
18,GATGATTGTTCTCCCAGCTGATGAATTACTTTATTCGAGTAAACAAATTTTCCTAATCTTTCTGTTCAAGCGCCATCTAC,0.651
19,GATGATTGTTCTCCCAGCTGATGAATTAGTCGGGTCGAGTAAACAAATTTTCCTAATCTTTCTGTTCAAGCGCCATCTAC,0.496
20,GATGATTGTTCTCCCAGCTGATGAATTATGTAGATCGAGTAAACAAATTTTCCTAATCTTTCTGTTCAAGCGCCATCTAC,1.23
21,GATGATTGTTCTCCCAGCTGATGAATTCGTGCGGTCGAGTAAACAAATTTTCCTAATCTTTCTGTTCAAGCGCCATCTAC,0.419

row,Sequence,binding signal (RPM ratio (pull-down/input))
1,GATGATTGTTCTCCCAGCTGATGAATTCTGCCGTTCGAGTAAACAAATTTTCCTAATCTTTCTGTTCAAGCGCCATCTAC,1.49
2,GATGATTGTTCTCCCAGCTGATGAATTTGTGTGGTCGAGTAAACAAATTTTCCTAATCTTTCTGTTCAAGCGCCATCTAC,5.5
3,GATGATTGTTCTCCCAGCTGATGAATTAGAGAAGTCGAGTAAACAAATTTTCCTAATCTTTCTGTTCAAGCGCCATCTAC,0.226
4,GATGATTGTTCTCCCAGCTGATGAATTTGGAACCTCGAGTAAACAAATTTTCCTAATCTTTCTGTTCAAGCGCCATCTAC,0.33
5,GATGATTGTTCTCCCAGCTGATGAATTGTTTATGTCGAGTAAACAAATTTTCCTAATCTTTCTGTTCAAGCGCCATCTAC,7
6,GATGATTGTTCTCCCAGCTGATGAATTTTGCACTTCGAGTAAACAAATTTTCCTAATCTTTCTGTTCAAGCGCCATCTAC,1.95
7,GATGATTGTTCTCCCAGCTGATGAATTGCACACTTCGAGTAAACAAATTTTCCTAATCTTTCTGTTCAAGCGCCATCTAC,1.08
8,GATGATTGTTCTCCCAGCTGATGAATTAGATTTGTCGAGTAAACAAATTTTCCTAATCTTTCTGTTCAAGCGCCATCTAC,1.97
9,GATGATTGTTCTCCCAGCTGATGAATTTCCTGTCTCGAGTAAACAAATTTTCCTAATCTTTCTGTTCAAGCGCCATCTAC,0.322
10,GATGATTGTTCTCCCAGCTGATGAATTGGGCATCTCGAGTAAACAAATTTTCCTAATCTTTCTGTTCAAGCGCCATCTAC,6.41
11,GATGATTGTTCTCCCAGCTGATGAATTTAGGTTTTCGAGTAAACAAATTTTCCTAATCTTTCTGTTCAAGCGCCATCTAC,0.862
12,GATGATTGTTCTCCCAGCTGATGAATTCTACAGTTCGAGTAAACAAATTTTCCTAATCTTTCTGTTCAAGCGCCATCTAC,0.354
13,GATGATTGTTCTCCCAGCTGATGAATTGAAGTTGTCGAGTAAACAAATTTTCCTAATCTTTCTGTTCAAGCGCCATCTAC,0.722
14,GATGATTGTTCTCCCAGCTGATGAATTAAGACCGTCGAGTAAACAAATTTTCCTAATCTTTCTGTTCAAGCGCCATCTAC,0.337
15,GATGATTGTTCTCCCAGCTGATGAATTTTTCGGCTCGAGTAAACAAATTTTCCTAATCTTTCTGTTCAAGCGCCATCTAC,0.211
16,GATGATTGTTCTCCCAGCTGATGAATTCATCAGTTCGAGTAAACAAATTTTCCTAATCTTTCTGTTCAAGCGCCATCTAC,0.536
17,GATGATTGTTCTCCCAGCTGATGAATTGTTGATCTCGAGTAAACAAATTTTCCTAATCTTTCTGTTCAAGCGCCATCTAC,3.69
18,GATGATTGTTCTCCCAGCTGATGAATTGCCAACTTCGAGTAAACAAATTTTCCTAATCTTTCTGTTCAAGCGCCATCTAC,0.574
19,GATGATTGTTCTCCCAGCTGATGAATTTTGACTATCGAGTAAACAAATTTTCCTAATCTTTCTGTTCAAGCGCCATCTAC,0.775
20,GATGATTGTTCTCCCAGCTGATGAATTATCTGTCTCGAGTAAACAAATTTTCCTAATCTTTCTGTTCAAGCGCCATCTAC,0.303
21,GATGATTGTTCTCCCAGCTGATGAATTGGGGGCGTCGAGTAAACAAATTTTCCTAATCTTTCTGTTCAAGCGCCATCTAC,0.608
